# Assay results as given in PubChem BioAssay AID652104 (National Center for Advancing Translational Sciences (NCATS), 2013).
# About 7,200 (1.8%) of roughly 410,000 compounds were called active. This list was built around the results that the source calls inconclusive (neither active nor inactive); the mix of calls is not that of the screen. Calls follow the shape of the dose curve; as a rule, active = well fitted activation curve with a large enough effect; inconclusive = small, poorly fitted or top-dose-only effect, or another doubt; inactive = no such curve, though single readings can be large or run the other way. Potencies of inconclusive entries are left out as doubtful fits.
# Experiment: qHTS of TDP-43 Inhibitors; also: nearly all actives have a fitted effect of over 50% in size; as to growth rescue (activation): % of control where 0% means no effect
# Details: TDP-43 expressing yeast growth rescue, BacTiter-Glo, 24 h; growth rescue (activation): at 46.1 µM (top of the series) unless noted
# Method in brief: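 Yeast cells expressing TDP-43 under galactose induction are exposed to compounds for 24 hr at 30 deg C. BacTiter-Glo luminescence measures growth, so protective compounds score as activators.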
# Potency is read from the fitted curve at half-maximal effect; tags tell the direction and shape of the fitted curve.
Structure (SMILES),Potency,growth rescue (activation)
CC(C)n1c(Oc2ccc(F)cc2)nc2c1c(=O)n(C)c(=O)n2C,"inconclusive [activator, partial curve, poor fit]",–
Cc1onc(-c2ccccc2)c1C(=O)Oc1ccccc1,"inconclusive [activator, single point]",–
Cc1ccc(CCNC(=O)CS(=O)Cc2nc(-c3ccccc3C)oc2C)cc1 (centres undefined),"inconclusive [activator, partial curve]",–
COc1cc(/C=C/c2ccc3cccc(O)c3n2)cc(Cl)c1OC,"inconclusive [activator, single point]",–
Nn1c(Cc2cccc3ccccc23)nnc1SCCOc1ccc(Br)cc1,"inconclusive [activator, single point]",–
Cc1ccccc1OCCNC(=S)Nc1ccccc1,"inconclusive [activator, single point]",–
CCC(=O)NNC(=S)NC(=O)c1ccc(C)cc1,active: 20 µM,–
CSc1ncccc1C(=O)OCC(=O)Nc1ccc2c(c1)CCC2,"inconclusive [activator, partial curve, poor fit]",–
COc1ccccc1C(=O)O[C@H]1[C@H](Cc2ccccc2)NS(=O)(=O)[C@H]2C[C@@H]3C=C[C@]12O3,"inconclusive [activator, partial curve]",–
O=C(Nc1ccc(F)cc1F)Nc1csc2ccccc12,active: 11.2 µM,–
CC1(C(=O)NCCC#N)CCN1C(=O)c1ccccc1CCc1ccccc1 (centres undefined),"inconclusive [activator, full curve, poor fit]",–
COc1ccc(-c2nc3ccc(Br)cn3c2Cc2ccccc2)cc1OC,–,inactive: 14.9%
O=[N+]([O-])c1cccc(CN2CCCCCC2)c1,–,inactive: 0.549%
S=C(NCCc1ccc(Cl)cc1)NCc1ccco1,–,inactive: 16.4% [at 9.22 µM]
NC(=S)Nc1ccc(C(F)(F)F)cc1Cl,"inconclusive [activator, partial curve]",–
CC(=O)c1ccc(NC(=O)c2ccc(-c3ccc(Cl)cc3)o2)cc1,active: 11.2 µM,–
COc1ccc(N2CC(NC(=O)c3ccco3)CC2=O)cc1 (centres undefined),"inconclusive [activator, partial curve]",–
COc1ccc(C2(CNC(=O)c3cccc([N+](=O)[O-])c3)CCCCC2)cc1OC,"inconclusive [activator, single point]",–
Cc1ccc(F)c(S(=O)(=O)NC(=O)C2(C)CCN2C(=O)C2(c3ccc(Cl)cc3)CC2)c1 (centres undefined),"inconclusive [activator, single point]",–
CCCC12CN3CC(CCC)(CN(C1)C3c1ccccc1)C2=O (centres undefined),–,inactive: 2.01%
CC(=O)Nc1ccc(/C(C)=N/Nc2nc(Nc3ccccc3)nc(N3CCOCC3)n2)cc1,"inconclusive [activator, partial curve, poor fit]",–
Cc1ccccc1OCc1nc2c3cnn(C)c3ncn2n1,"inconclusive [activator, full curve]",–

Structure (SMILES),Potency,growth rescue (activation)
Nc1ccc2c(c1)Cc1cc(Cl)c(Cl)cc1-2,"inconclusive [activator, partial curve]",–
c1ccc(-n2ncc3c(N4CCCC4)ncnc32)cc1,"inconclusive [activator, single point]",–
CCCc1nnc(NC(=O)c2nc(S(=O)(=O)Cc3cccc(C)c3)ncc2Cl)s1,"inconclusive [activator, single point]",–
Cc1cc(Nc2cccc(C)c2C)n2ncnc2n1,"inconclusive [activator, partial curve]",–
Cc1c(C(=O)Nc2ccccc2F)sc2ncnc(N(C)C3CCCCC3)c12,"inconclusive [activator, full curve]",–
CCC(C)(C)NC(=O)c1cc([N+](=O)[O-])ccc1N1CCCCC1,"inconclusive [activator, partial curve]",–
COC(=O)c1ccccc1NC(=O)N1c2ccccc2CC1C (centres undefined),"inconclusive [activator, single point]",–
Cc1ccc(NC(=O)c2cc(C)n(-c3cccc(C)c3)c2C)cc1,"inconclusive [activator, single point]",–
CCC(=O)c1cc2c(C)cc(=O)oc2c(C)c1OC,–,inconclusive: 32.6% [activator]
CCc1ccc(CN2CCCC(C(=O)Nc3ccc(-c4cscn4)cc3)C2)o1 (centres undefined),–,inactive: -19.4%
CC1(C(=O)Nc2ccc3c(c2)OCCO3)CCN1C(=O)c1ccccc1CCc1ccccc1 (centres undefined),active: 14.1 µM,–
CC1(C(=O)NS(=O)(=O)C2CC2)CCN(C(=O)c2cc(F)cc(F)c2)C1 (centres undefined),"inconclusive [activator, single point]",–
Cc1nn(-c2ccc(N3CCCC3)nn2)c(C)c1CCC(=O)Nc1ccc(F)cc1F,–,inactive: 1.2%
O=C(OC1CCOC1=O)c1cc(-c2ccccc2)nc2ccccc12 (centres undefined),"inconclusive [activator, single point]",–
COc1ccccc1C=Cc1ccnc2ccccc12,"inconclusive [activator, single point]",–
Cc1cccc(OCc2nnc(SCC(=O)N3c4ccccc4CC3C)n2C)c1C (centres undefined),"inconclusive [activator, single point]",–
O=C(c1cccc(Oc2ccccc2)c1)N1CCOCC1,"inconclusive [activator, partial curve]",–
CCS(=O)(=O)c1nc(S(=O)(=O)c2ccc(C)cc2)c(N2CCCCCC2)s1,"inconclusive [activator, full curve, poor fit]",–
Cc1ccc(-c2ccc(C(=O)Nc3ccccc3)o2)c2ccccc12,–,inactive: 26.5%
CCOc1ccccc1Nc1nnc(-c2cc3cc(OC)ccc3oc2=O)s1,–,inactive: 1.45% [at 9.22 µM]
CCCCN(CC)C(=O)c1cc2c(=O)n3cccc(C)c3nc2n1C,"inconclusive [activator, partial curve]",–
Fc1cccc(Cc2noc(CN3CCCN(C4Cc5ccccc5C4)CC3)n2)c1,–,inactive: -17.6%
